From the supplement of paper PMC9446081
Among all 39,000 compounds or so, about 220 (0.56%) showed activity. The list shows a part of the results.

tested on: Escherichia coli K-12 BW25113; assay: relative growth (OD600 normalised to plate interquartile mean) (fraction); higher = less growth inhibition, active = 0.2 or less; conditions: 50 µM; LB; incubation time: overnight (16-24 h)
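Further: static incubation at 37 °C against the wild-type strain, values averaged over two biological replicates.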

| SMILES | relative growth |
| --- | --- |
| C[C@@H]1CCCCO[C@H](CN(C)Cc2ccc(C(F)(F)F)cc2)[C@H](C)CN([C@H](C)CO)C(=O)c2cc(NC(=O)CCCN(C)C)ccc2O1 | inactive: 0.981 |
| CN1C(=O)c2cc(NC(=O)c3cccs3)ccc2OC[C@@H]2O[C@H](CC(=O)NCCN3CCCCC3)CC[C@H]21 | inactive: 1.02 |
| C[C@H]1CN([C@@H](C)CO)S(=O)(=O)c2ccc(-c3cccc(C(=O)N(C)C)c3)cc2O[C@@H]1CN(C)C(=O)Cc1ccccn1 | inactive: 1.01 |
| C[C@H](CO)N1C[C@H](C)[C@H](CN(C)C(=O)Nc2ccc3c(c2)OCO3)Oc2ccc(NS(=O)(=O)c3cn(C)cn3)cc2CC1=O | inactive: 0.977 |
| CCNC(=O)C[C@H]1CC[C@@H]2[C@H](COC[C@H](O)CN2C(=O)Nc2c(C)noc2C)O1 | inactive: 0.84 |
| Cc1noc(C)c1S(=O)(=O)Nc1ccc2c(c1)C(=O)N([C@H](C)CO)C[C@@H](C)[C@@H](CN(C)CC1CCCCC1)OCCCC[C@@H](C)O2 | inactive: 1.01 |
| C[C@@H]1CN([C@H](C)CO)C(=O)c2cc(C#Cc3ccc(F)cc3)cnc2O[C@@H]1CN(C)Cc1ccccn1 | inactive: 0.999 |
| C[C@@H]1CCCCO[C@@H](CN(C)C(=O)c2ccccc2)[C@@H](C)CN([C@@H](C)CO)C(=O)c2cc(NS(=O)(=O)c3ccc(Cl)cc3)ccc2O1 | inactive: 1 |
| C[C@@H](NCCC(c1ccccc1)c1ccccc1)c1ccccc1 | inactive: 0.976 |
| COc1ccc(CN(C)C[C@H]2OCCCC[C@@H](C)Oc3ccc(NC(=O)c4ccncc4)cc3C(=O)N([C@@H](C)CO)C[C@@H]2C)cc1 | inactive: 0.976 |
| C[C@@H]1CCCCO[C@@H](CN(C)CC2CC2)[C@@H](C)CN([C@H](C)CO)C(=O)c2cc(NS(=O)(=O)c3cn(C)cn3)ccc2O1 | inactive: 0.975 |
| COc1ccc([C@H]([C@@H](O)Cc2ccccc2)N(CC#C[C@@H](O[Si](c2ccccc2)(c2ccccc2)C(C)(C)C)c2ccccc2)[C@@H](Cc2ccccc2)C(OC)OC)cc1 | inactive: 1.06 |
| CCOC(=O)/C(C)=N\O | inactive: 0.975 |
| COCC#Cc1ccc2c(c1)O[C@@H](CN(C)S(C)(=O)=O)[C@@H](C)CN([C@@H](C)CO)S2(=O)=O | inactive: 1.03 |
| C[C@H](CO)N1C[C@H](C)[C@@H](CN(C)Cc2ccc(C(F)(F)F)cc2)Oc2c(NC(=O)Nc3ccc(C(F)(F)F)cc3)cccc2C1=O | inactive: 0.928 |
| C[C@H](CO)N1C[C@H](C)[C@H](CN(C)S(C)(=O)=O)OCCCC[C@H](C)Oc2ccc(NS(=O)(=O)c3cccs3)cc2C1=O | inactive: 1.01 |
